Results reported in publication PMC9911399, “Two distinct binding modes provide the RNA-binding protein RbFox with extraordinary sequence specificity”.
Residue numbers refer to the chain shown, from its start. The list shows a part of the results.

T1: RBFOX1 RRM RbFoxmut (Fox-RRM*) (Homo sapiens, UniProt Q9NWB1 109-208, R118D;E147R;N151S;E152T)
T1 sequence: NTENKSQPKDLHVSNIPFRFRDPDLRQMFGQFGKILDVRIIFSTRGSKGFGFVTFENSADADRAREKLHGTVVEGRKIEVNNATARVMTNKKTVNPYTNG

B1: CCGAAUA (DNA:RNA)
RNA: GGGAGACCGGAAUUCAGAUUGUCCCCGAAUAUUAAAUCCCGUCGUAGCCACCA
DNA 1: CAATCTGAATTCCGGTCTCCC
DNA 2: TGGTGGCTACGACGGGATT
B2: AACUCAU (DNA:RNA)
RNA: GGGAGACCGGAAUUCAGAUUGUCCAACUCAUUUAAAUCCCGUCGUAGCCACCA
DNA 1: CAATCTGAATTCCGGTCTCCC
DNA 2: TGGTGGCTACGACGGGATT
B3: UCUCCAU (DNA:RNA)
RNA: B2 RNA with A25U, A26C, C27U, U28C
DNA 1: CAATCTGAATTCCGGTCTCCC
DNA 2: TGGTGGCTACGACGGGATT
B4: UAGUCCG (DNA:RNA)
RNA: B2 RNA with A25U, C27G, A30C, U31G
DNA 1: CAATCTGAATTCCGGTCTCCC
DNA 2: TGGTGGCTACGACGGGATT
B5: UAACGAG (DNA:RNA)
RNA: B2 RNA with A25U, C27A, U28C, C29G, U31G
DNA 1: CAATCTGAATTCCGGTCTCCC
DNA 2: TGGTGGCTACGACGGGATT
B6: GUCUGUA (DNA:RNA)
RNA: B2 RNA with A25G, A26U, C29G, A30U, U31A
DNA 1: CAATCTGAATTCCGGTCTCCC
DNA 2: TGGTGGCTACGACGGGATT
B7: AUUGUAA (DNA:RNA)
RNA: B2 RNA with A26U, C27U, U28G, C29U, U31A
DNA 1: CAATCTGAATTCCGGTCTCCC
DNA 2: TGGTGGCTACGACGGGATT
B8: AGUCGUG (DNA:RNA)
RNA: B2 RNA with A26G, C27U, U28C, C29G, A30U, U31G
DNA 1: CAATCTGAATTCCGGTCTCCC
DNA 2: TGGTGGCTACGACGGGATT
B9: GUGGUGC (DNA:RNA)
RNA: B1 RNA with C25G, C26U, A28G, A29U, U30G, A31C
DNA 1: CAATCTGAATTCCGGTCTCCC
DNA 2: TGGTGGCTACGACGGGATT
B10: UGCGACA (DNA:RNA)
RNA: B1 RNA with C25U, C26G, G27C, A28G, U30C
DNA 1: CAATCTGAATTCCGGTCTCCC
DNA 2: TGGTGGCTACGACGGGATT
B11: ACAUUAG (DNA:RNA)
RNA: B2 RNA with A26C, C27A, C29U, U31G
DNA 1: CAATCTGAATTCCGGTCTCCC
DNA 2: TGGTGGCTACGACGGGATT
B12: UCGAUGC (DNA:RNA)
RNA: B1 RNA with C25U, A29U, U30G, A31C
DNA 1: CAATCTGAATTCCGGTCTCCC
DNA 2: TGGTGGCTACGACGGGATT
B13: GUCUAUC (DNA:RNA)
RNA: B2 RNA with A25G, A26U, C29A, A30U, U31C
DNA 1: CAATCTGAATTCCGGTCTCCC
DNA 2: TGGTGGCTACGACGGGATT
B14: AUACUAG (DNA:RNA)
RNA: B2 RNA with A26U, C27A, U28C, C29U, U31G
DNA 1: CAATCTGAATTCCGGTCTCCC
DNA 2: TGGTGGCTACGACGGGATT
B15: GAAGCGC (DNA:RNA)
RNA: B2 RNA with A25G, C27A, U28G, A30G, U31C
DNA 1: CAATCTGAATTCCGGTCTCCC
DNA 2: TGGTGGCTACGACGGGATT
B16: UUGAAGA (DNA:RNA)
RNA: B1 RNA with C25U, C26U, U30G
DNA 1: CAATCTGAATTCCGGTCTCCC
DNA 2: TGGTGGCTACGACGGGATT
B17: AUAAUCC (DNA:RNA)
RNA: B2 RNA with A26U, C27A, U28A, C29U, A30C, U31C
DNA 1: CAATCTGAATTCCGGTCTCCC
DNA 2: TGGTGGCTACGACGGGATT
B18: UGGAGCG (DNA:RNA)
RNA: B1 RNA with C25U, C26G, A29G, U30C, A31G
DNA 1: CAATCTGAATTCCGGTCTCCC
DNA 2: TGGTGGCTACGACGGGATT
B19: UCCUGCU (DNA:RNA)
RNA: B2 RNA with A25U, A26C, C29G, A30C
DNA 1: CAATCTGAATTCCGGTCTCCC
DNA 2: TGGTGGCTACGACGGGATT
B20: CUUCAGG (DNA:RNA)
RNA: B1 RNA with C26U, G27U, A28C, U30G, A31G
DNA 1: CAATCTGAATTCCGGTCTCCC
DNA 2: TGGTGGCTACGACGGGATT
B21: AUUAGAG (DNA:RNA)
RNA: B2 RNA with A26U, C27U, U28A, C29G, U31G
DNA 1: CAATCTGAATTCCGGTCTCCC
DNA 2: TGGTGGCTACGACGGGATT
B22: CUUUCUC (DNA:RNA)
RNA: B2 RNA with A25C, A26U, C27U, A30U, U31C
DNA 1: CAATCTGAATTCCGGTCTCCC
DNA 2: TGGTGGCTACGACGGGATT
B23: UACCAAC (DNA:RNA)
RNA: B2 RNA with A25U, U28C, C29A, U31C
DNA 1: CAATCTGAATTCCGGTCTCCC
DNA 2: TGGTGGCTACGACGGGATT
B24: GCGUGGU (DNA:RNA)
RNA: B2 RNA with A25G, A26C, C27G, C29G, A30G
DNA 1: CAATCTGAATTCCGGTCTCCC
DNA 2: TGGTGGCTACGACGGGATT
B25: UGACGGG (DNA:RNA)
RNA: GGGAGACCGGAAUUCAGAUUGUCCUGACGGGUUAAAUCCCGUCGUAGCCACCA
DNA 1: CAATCTGAATTCCGGTCTCCC
DNA 2: TGGTGGCTACGACGGGATT
B26: GGCUUCA (DNA:RNA)
RNA: B2 RNA with A25G, A26G, C29U, A30C, U31A
DNA 1: CAATCTGAATTCCGGTCTCCC
DNA 2: TGGTGGCTACGACGGGATT
B27: UAGCGUA (DNA:RNA)
RNA: B1 RNA with C25U, C26A, A28C, A29G
DNA 1: CAATCTGAATTCCGGTCTCCC
DNA 2: TGGTGGCTACGACGGGATT
B28: AAACUAU (DNA:RNA)
RNA: B2 RNA with C27A, U28C, C29U
DNA 1: CAATCTGAATTCCGGTCTCCC
DNA 2: TGGTGGCTACGACGGGATT
B29: UAACCUC (DNA:RNA)
RNA: B25 RNA with G26A, G29C, G30U, G31C
DNA 1: CAATCTGAATTCCGGTCTCCC
DNA 2: TGGTGGCTACGACGGGATT
B30: GAUCUUA (DNA:RNA)
RNA: B1 RNA with C25G, C26A, G27U, A28C, A29U
DNA 1: CAATCTGAATTCCGGTCTCCC
DNA 2: TGGTGGCTACGACGGGATT
B31: GCGAUAU (DNA:RNA)
RNA: B1 RNA with C25G, A29U, U30A, A31U
DNA 1: CAATCTGAATTCCGGTCTCCC
DNA 2: TGGTGGCTACGACGGGATT

Target: T1, RBFOX1 RRM RbFoxmut (Fox-RRM*)
Test: EMSA; HiTS-Eq, 1 nM pool, 10 min; buffer printed only for the single-RNA assays: 10 mM Tris pH 7.5, 150 mM NaCl, 3.4 mM EDTA, 0.001% NP-40, 30 C
Details: tags: His6 N-terminal (pET28a); label: 5' 32P
In short: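 These values rest on relative association constants, computed from read-count changes of each RNA species versus the control reaction and normalised to the cognate motif. Reads came from free RNA recovered by 8% native PAGE after purified RbFox RRM (wild type or mutant) at increasing concentrations was equilibrated for 10 min in 50 µL with 1 nM of a 5′-radiolabelled pool with 7 randomized nucleotides and DNA-annealed flanks.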

Binder	binding signal
B1	0.0834 KA relative to UGCAUGU
B2	0.102 KA relative to UGCAUGU
B3	0.0978 KA relative to UGCAUGU
B4	0.112 KA relative to UGCAUGU
B5	0.0709 KA relative to UGCAUGU
B6	0.21 KA relative to UGCAUGU
B7	0.154 KA relative to UGCAUGU
B8	0.117 KA relative to UGCAUGU
B9	0.165 KA relative to UGCAUGU
B10	0.0626 KA relative to UGCAUGU
B11	0.134 KA relative to UGCAUGU
B12	0.0993 KA relative to UGCAUGU
B13	0.0839 KA relative to UGCAUGU
B14	0.118 KA relative to UGCAUGU
B15	0.0729 KA relative to UGCAUGU
B16	0.0875 KA relative to UGCAUGU

Binder	binding signal
B17	0.0712 KA relative to UGCAUGU
B18	0.17 KA relative to UGCAUGU
B19	0.0926 KA relative to UGCAUGU
B20	0.0952 KA relative to UGCAUGU
B21	0.146 KA relative to UGCAUGU
B22	0.075 KA relative to UGCAUGU
B23	0.0684 KA relative to UGCAUGU
B24	0.163 KA relative to UGCAUGU
B25	0.0677 KA relative to UGCAUGU
B26	0.132 KA relative to UGCAUGU
B27	0.147 KA relative to UGCAUGU
B28	0.0741 KA relative to UGCAUGU
B29	0.0733 KA relative to UGCAUGU
B30	0.0946 KA relative to UGCAUGU
B31	0.11 KA relative to UGCAUGU
